PubChem BioAssay AID485313 (National Center for Advancing Translational Sciences (NCATS), 2010)
The whole screen tested about 320,000 compounds, of which about 7,600 (2.4%) were called active. Inconclusive means that the source gave no clear call. Such entries were picked first, then a sample of the others. The call rests on the fitted dose curve; in most records, active means well fitted activation curve with a large enough effect; inconclusive means small, poorly fitted or top-dose-only effect; inactive means no such curve, though single readings can be large or run the other way. Potencies beside an inconclusive call are fits to weak or partial responses and may not hold up.

Assay: qHTS Assay for NPC1 Promoter Activators; further: nearly all actives have a fitted effect of over 60% in size;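 on activation: reporter is driven by a mutant NPC1 promoter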
Conditions: Huh7 NPC1 promoter luciferase reporter, 24 h; series mostly up to 9.22 µM
Outline: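 NPC1 promoter–luciferase Huh7 cells; 24 h compound; luminescence.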
Potency means the concentration at half of the fitted maximal effect; tags describe the fitted curve by direction and shape.

Potency, inconclusive:
Cc1cc(C(=O)N/N=C/c2ccccc2[N+](=O)[O-])c(C)o1 5.62 µM [activator, single point]
OCCN(/C=N/c1nc(-c2ccc(Br)cc2)cs1)CCO 3.55 µM [activator, single point]
Cc1nc(NCc2ccccc2)sc1C(=O)Nc1ccccc1 3.55 µM [activator, partial curve]
COc1cccc(C(=O)Nc2ccc(NC(C)=O)cn2)c1 4.47 µM [activator, single point]
Cc1ccc(-c2cc3nc(-c4ccccc4)cc(N)n3n2)cc1 2 µM [activator, partial curve]
c1ccc(CNc2ccc3c(c2)ncn3C2CCCCC2)nc1 4.47 µM [activator, single point]
CC(C)(C)c1csc(NC(=O)C2COc3ccccc3O2)n1 (centres undefined) 3.55 µM [activator, partial curve]
Cc1cnc(NC(=O)c2ccc(Cl)nc2)s1 2.51 µM [activator, partial curve]
Cc1cc(NC(=O)/C=C/c2ccc(F)cc2)n(-c2nc3ccccc3[nH]2)n1 3.16 µM [activator, single point]
COC(=O)C1C(=O)c2c([nH]c(C(=O)OC3CCCCCC3)c2C)CC1C (centres undefined) 3.16 µM [activator, single point]
Cc1cc(C(=O)COC(=O)c2ccc[nH]c2=O)c(C)n1C1CC1 3.16 µM [activator, single point]
O=C(Nc1ccccc1N1CCOCC1)c1cc2ccccc2o1 5.62 µM [activator, single point]
CC#CC(=O)N1CCCC(Cc2cccc(OC)c2)(C(=O)OCC)C1 (centres undefined) 3.16 µM [activator, partial curve]
C/C(=N\NC(=O)COc1ccccc1F)c1cc2ccccc2o1 3.16 µM [activator, single point]
CNc1ccccc(-c2ccc3cc4c(cc3n2)OCO4)c1=O 3.55 µM [activator, single point]
c1csc(CSc2nc3ccccc3s2)c1 5.62 µM [activator, single point]
COc1ccc(/C=C/c2noc(-c3ccccc3O)n2)cc1 3.16 µM [activator, partial curve]
Cc1c(-c2cc(Br)ccc2O)nc2cc3c(cc2c1C)OCO3 5.62 µM [activator, single point]
Cc1ccc(N2CCN(C(=S)c3ccc(N(C)C)cc3)CC2)cc1 5.62 µM [activator, single point]
O=C(Nc1ccc2c(c1)CCC2)c1ccc(Br)s1 5.62 µM [activator, single point]
COc1ccccc1/C=C/C(=O)c1ccccc1 3.98 µM [activator, single point]
COc1ccc2[nH]c(C(=O)Nc3ccc(C)c(F)c3)cc2c1 3.55 µM [activator, partial curve]
CCOC(=O)c1ccc(NC(=O)CC2SCCNC2=O)cc1 (centres undefined) 2.24 µM [activator, partial curve]
COc1ccc(NC(=O)c2ccc(-c3csc(C)n3)cc2)cc1 1.41 µM [activator, partial curve]
CCCNC(=O)c1cc(-c2ccco2)on1 2.24 µM [activator, partial curve]
O=C(NC(=O)c1ccccc1)Nc1ccccc1O 5.62 µM [activator, single point]
CCOc1cccc(C(=O)Nc2nccs2)c1 5.01 µM [activator, single point]
Cc1ccccc1OCc1nc(-c2ccc(NC(=O)c3cccs3)cc2)no1 5.62 µM [activator, single point]
c1ccc(-c2nc3ccccc3o2)nc1 3.16 µM [activator, partial curve]
Cc1ccc(NC(=O)NNC(=O)c2ccc3c(c2)NC(=O)C(C)(C)O3)cc1 1 µM [activator, single point]
CC(C)c1nnc(NC(=O)c2cc3ccccc3o2)s1 1 µM [activator, full curve]
c1ccc(C(Cc2nc(-c3ccccn3)no2)c2ccccc2)cc1 3.98 µM [activator, partial curve]
O=C(O)c1cccc(N/N=C/c2cccnc2)c1 0.447 µM [activator, partial curve]
COc1ccc(-c2cc3nc(CCl)[nH]c(=O)c3s2)cc1 1.58 µM [activator, partial curve]
CCc1ccc(Oc2coc3cc(O)ccc3c2=O)cc1 4.47 µM [activator, single point]
CC(=O)N(C)c1ccc(NC(=O)Nc2cccc3ccccc23)cc1 2.24 µM [activator, partial curve]
CCn1c(C)nc2cc(C(=O)NNC(=S)Nc3ccc(F)cc3)ccc21 3.16 µM [activator, partial curve]
COc1ccc(-c2csc(-c3ccccc3)n2)c(OC)c1 3.98 µM [activator, single point]
O=C(Nc1ccc(NC(=O)c2cccs2)cc1Cl)c1ccco1 3.16 µM [activator, partial curve]
CCNC(=S)NNC(=O)c1cc(-c2ccc(OCC)cc2)nc2ccccc12 0.251 µM [activator, full curve]
CCCCCN=C(C)c1c(O)c2ccccc2oc1=O 3.55 µM [activator, partial curve]

Potency, inactive:
CC(=O)Cc1nsc(NC(=O)c2ccc(-c3cc(C(F)(F)F)ccc3Cl)o2)n1
Cc1cc(NC(=O)CCC(=O)N(CC(=O)NC2CCCC2)c2ccc(Cl)cc2)no1
C=CCn1c2ccccc2c(=O)c2cc(C#Cc3cc(OC)cc(OC)c3)ccc21
Cc1cccc(NC(=O)c2ccc(N3C(=O)C4C5C=CC(C6CC56)C4C3=O)cc2)c1 (centres undefined)
COc1cccc(NC(=O)c2ccc(NCCCN3CC(C)CC(C)C3)c([N+](=O)[O-])c2)c1 (centres undefined)
O=C(CCS(=O)(=O)c1ccc(Cl)cc1)Nc1nc(-c2cccnc2)cs1
COc1cc(-c2nnc(CSc3nc4ccccc4s3)o2)cc(OC)c1OC
CC(C)CNS(=O)(=O)c1ccc(C(=O)Nc2ccc3c(c2)OCO3)cc1
COc1ccccc1C1=NNC(=Nc2cccc(S(=O)(=O)N(C)C)c2)SC1
COCc1c(C(=O)OC)nnn1-c1ccc(C(F)(F)F)cc1[N+](=O)[O-]
O=C(O)c1cc(-c2ccc(/C=N/N3C(=O)C4C5C=CC(C6CC56)C4C3=O)o2)ccc1Cl (centres undefined)
CC(=O)Nc1ccc(S(=O)(=O)N2CCC(Oc3ccc(-n4cnnn4)cc3)CC2)cc1
CN(C)S(=O)(=O)c1cccc(NC(=O)CCc2nc3sc4c(c3c(=O)[nH]2)CCCC4)c1
Cc1cc(C)nc(Nc2ccc(O)cc2)n1
COc1ccc([N+](=O)[O-])cc1N(CC(=O)NC1CCCC1)S(C)(=O)=O
Cc1cccc(C)c1NC(=S)N(CCCN1CCOCC1)Cc1cccnc1
CCN(C(=O)COC(=O)c1cn(-c2ccccc2)nc1-c1ccccc1)C1CCS(=O)(=O)C1 (centres undefined)
O=C(c1ccccc1)c1ccc(OC(=O)N2CCOCC2)cc1
C/C(N)=C(/C#N)C(=O)CSc1nc2ccccc2c(=O)n1-c1ccccc1C
Cc1cccc(C)c1NC(=O)CN1CCN(C(=O)CNC(=O)c2ccc(N3CCCC3=O)cc2)CC1
CSc1ccc(CSCC(=O)N2CCN(S(=O)(=O)c3ccc(C)cc3C)CC2)cc1
CCCCn1c(NCc2ccc(N(C)C)cc2)nc2ccccc21
CCOc1ccc(S(=O)(=O)NCCC(=O)NCc2ccc(OC)c(OC)c2)cc1

Potency, active:
O=C(Nc1cnc2ccccc2c1)c1ccco1 1.41 µM
C=CCn1cccc(C(=O)Nc2ccc(C)c(Cl)c2)c1=O 2.51 µM
Cn1cccc1C(=O)C(=O)Nc1ccccc1 0.562 µM
CC(/C=N/NC(=O)c1ccccn1)=C\c1ccco1 1.41 µM
Cc1cc(C(=O)NCCc2ccccc2)ccc1[N+](=O)[O-] 2.24 µM
Cc1cnc(C(=O)Nc2ccc(C(C)C)cc2)cn1 3.55 µM
CC1CC1c1ccc(/C=C(\C#N)C(=O)Nc2ccc(Cl)cc2)o1 (centres undefined) 3.55 µM
O=C(Nc1ccccc1)c1cc2ccccc2o1 2.82 µM
Cc1cc(Cl)ccc1OCc1nc(-c2ccncc2)no1 2.82 µM
Clc1ccc(-c2cn3nc4c(nc3n2)CCCC4)cc1 0.199 µM
Cc1cccc(N2CCN(C(=O)CCCOc3ccccc3)CC2)c1C 3.16 µM
Cc1nc(N2CCN(C(=O)c3ccco3)CC2)nc2c1C(=O)CCC2 0.316 µM
CCOC(=O)c1sc2nc3c(cc2c1N)COC(C)(C)C3 2.82 µM
Cc1cc(/C=C2/NC(=O)N(c3ccccc3)C2=O)c(C)n1C(C)C 3.16 µM
COc1cccc(CNc2ccc(Br)cn2)c1O 1 µM
